# The BET-seq Pho4 binding data (Le et al. 2018)
# The other results are listed elsewhere or left out. The energies were worked out here from pooled read counts, against the library average; single values are noisy.
# Target: T1, Pho4 (S. cerevisiae) (UniProt P07270)
# T1 sequence: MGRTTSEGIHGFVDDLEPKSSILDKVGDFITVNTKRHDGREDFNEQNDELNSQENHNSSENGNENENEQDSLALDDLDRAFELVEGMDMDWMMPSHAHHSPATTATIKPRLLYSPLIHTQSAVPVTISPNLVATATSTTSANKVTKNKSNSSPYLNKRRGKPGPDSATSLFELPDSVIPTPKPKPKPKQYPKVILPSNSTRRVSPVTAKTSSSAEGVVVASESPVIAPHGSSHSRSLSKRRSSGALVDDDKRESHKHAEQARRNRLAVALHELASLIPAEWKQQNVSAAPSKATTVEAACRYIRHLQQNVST
# Test: relative binding free energy (BET-seq); higher = weaker binding
# Settings: reference: library average
row,Sequence,relative binding free energy
1,TGGGCCACGTGGGAAT,-0.26 kcal/mol
2,TACTTCACGTGATAGG,0.38 kcal/mol
3,GAGGCCACGTGAGGGC,0.2 kcal/mol
4,CCGGGCACGTGGTTGT,-0.32 kcal/mol
5,GTGTGCACGTGCGCGT,-0.2 kcal/mol
6,ATGAGCACGTGGTAAG,-0.16 kcal/mol
7,TTTACCACGTGATTTA,0.16 kcal/mol
8,ACTGTCACGTGGTGTT,0.06 kcal/mol
9,TGCGTCACGTGGGGAC,-0.04 kcal/mol
10,TGACGCACGTGTAGGC,0.04 kcal/mol
11,TTTTTCACGTGATGAC,0.35 kcal/mol
12,AAGTGCACGTGAGTGT,0.14 kcal/mol
13,TGTGACACGTGTTCAT,0.01 kcal/mol
14,GGCGACACGTGCGGTG,-0.06 kcal/mol
15,GTTGCCACGTGGTTCT,0.03 kcal/mol
16,GCATGCACGTGGGCGG,-0.22 kcal/mol
17,CCTGGCACGTGGGTGG,-0.2 kcal/mol
18,TCTGTCACGTGTTTGC,-0.04 kcal/mol
19,GTAATCACGTGGGATC,0.12 kcal/mol
20,TAACGCACGTGCGGTT,-0.06 kcal/mol
21,TTGGACACGTGGTCTA,-0.09 kcal/mol
22,AGCGACACGTGTGTTG,-0.09 kcal/mol
23,CGGGTCACGTGTGGGA,0.16 kcal/mol
24,GGGACCACGTGGTGGG,-0.04 kcal/mol
25,TCAGACACGTGGTTTT,0.07 kcal/mol

row,Sequence,relative binding free energy
1,TTATCCACGTGTGTAG,-0.08 kcal/mol
2,ACATTCACGTGTTTTG,0.07 kcal/mol
3,TTGTGCACGTGAGTGT,0.1 kcal/mol
4,GTGGGCACGTGAATCA,0.21 kcal/mol
5,CTGAGCACGTGGGTTA,-0.2 kcal/mol
6,TGCGTCACGTGGGTAA,-0.01 kcal/mol
7,AGTGTCACGTGGCGCT,-0.05 kcal/mol
8,GTGTGCACGTGGAGTC,0.02 kcal/mol
9,TGTAGCACGTGCTTAG,-0.14 kcal/mol
10,TTAAACACGTGGAGTT,0.01 kcal/mol
11,ATAGACACGTGAGGGT,0.23 kcal/mol
12,TATTGCACGTGGTGGA,-0.04 kcal/mol
13,TAGGTCACGTGAGGAC,0.23 kcal/mol
14,TGAGGCACGTGCGGTG,-0.14 kcal/mol
15,TTCGACACGTGTTTTT,0.07 kcal/mol
16,AGCTGCACGTGTGTGG,0.08 kcal/mol
17,TGATGCACGTGTAGAT,0.11 kcal/mol
18,TCAGTCACGTGCGGGG,0 kcal/mol
19,ATATTCACGTGAGTGT,0.32 kcal/mol
20,TAGGACACGTGAATAT,0.3 kcal/mol
21,ACGAGCACGTGTGGGA,-0.17 kcal/mol
22,ATAGTCACGTGGTCGG,0.15 kcal/mol
23,CAGTGCACGTGGGCGT,-0.15 kcal/mol
24,GTCGGCACGTGGAGGG,-0.02 kcal/mol
25,ATAGACACGTGTGTGG,-0.07 kcal/mol

row,Sequence,relative binding free energy
1,TATAGCACGTGTTTGA,-0.11 kcal/mol
2,GGTACCACGTGACGGT,0.35 kcal/mol
3,AGGTGCACGTGTTGGA,-0.1 kcal/mol
4,TTTAGCACGTGCTGTT,-0.14 kcal/mol
5,AATTGCACGTGGGGTA,-0.21 kcal/mol
6,TTTTTCACGTGAATTT,0.36 kcal/mol
7,AGTCTCACGTGATTTT,0.19 kcal/mol
8,GATTCCACGTGAGGGG,0.4 kcal/mol
9,AGGCTCACGTGAGGGA,0.44 kcal/mol
10,TGGCTCACGTGGAATT,0.33 kcal/mol
11,GAAAGCACGTGTGGGG,0 kcal/mol
12,TTTCGCACGTGTGATG,0.13 kcal/mol
13,GGAAGCACGTGATGAG,0.08 kcal/mol
14,TGCGTCACGTGGTTAT,0.06 kcal/mol
15,ATGATCACGTGTATTT,0.13 kcal/mol
16,AGTGACACGTGTTGTG,-0.06 kcal/mol
17,GGAGTCACGTGTTAGT,0.13 kcal/mol
18,TGCGGCACGTGTCAGG,-0.13 kcal/mol
19,GCTTTCACGTGTTGAG,0.18 kcal/mol
20,GGTGTCACGTGGGATG,0.09 kcal/mol
21,GTGGTCACGTGGAAAG,0.29 kcal/mol
22,TTTGACACGTGTTGCT,-0.03 kcal/mol
23,ATGGCCACGTGGTGTG,-0.19 kcal/mol
24,TTGGACACGTGGAGGG,0 kcal/mol
25,GGGGACACGTGATATG,0.14 kcal/mol

row,Sequence,relative binding free energy
1,GGATCCACGTGGGTTT,0.22 kcal/mol
2,TCAGTCACGTGTGGTA,0.11 kcal/mol
3,TGGTCCACGTGTTATG,0.01 kcal/mol
4,TAGGTCACGTGGTTGC,0.04 kcal/mol
5,GCATTCACGTGAAGGT,0.46 kcal/mol
6,GTCTGCACGTGGTTAG,0.03 kcal/mol
7,AGTTACACGTGTTGTC,0.08 kcal/mol
8,TTTGACACGTGTAGAG,0.15 kcal/mol
9,AAGTGCACGTGAAATT,0.27 kcal/mol
10,ATTAGCACGTGGGTTT,-0.17 kcal/mol
11,TCTTGCACGTGCAGTT,0.06 kcal/mol
12,AGGAGCACGTGGGGTA,-0.25 kcal/mol
13,TTAAACACGTGTTTCT,-0.06 kcal/mol
14,GTTTACACGTGCGGAT,0.3 kcal/mol
15,GAGTTCACGTGGGACG,0.27 kcal/mol
16,TGGCTCACGTGTGGTG,0.28 kcal/mol
17,AGAAGCACGTGGGTAG,-0.14 kcal/mol
18,GTGAGCACGTGGTCGG,-0.04 kcal/mol
19,GTATACACGTGGAAGT,0.08 kcal/mol
20,GGTTTCACGTGTTCAG,0.08 kcal/mol
21,CTGATCACGTGGAGTG,0.17 kcal/mol
22,TATTTCACGTGTTAAG,0.25 kcal/mol
23,TTGACCACGTGGGGGT,-0.14 kcal/mol
24,TATCGCACGTGGTTAA,-0.07 kcal/mol
25,CAGAGCACGTGGTTGA,-0.03 kcal/mol

row,Sequence,relative binding free energy
1,TTGTACACGTGGCAGG,-0.19 kcal/mol
2,GCTGTCACGTGCGGGG,0.04 kcal/mol
3,GGACTCACGTGTGTTT,0.24 kcal/mol
4,GTGGCCACGTGGGAGA,-0.2 kcal/mol
5,CGTGGCACGTGAGGGA,0.19 kcal/mol
6,GTAGGCACGTGCCGTG,-0.24 kcal/mol
7,GGGTGCACGTGCACGA,0.05 kcal/mol
8,TGTTACACGTGCATGA,0.16 kcal/mol
9,TGCATCACGTGTAGTG,0.02 kcal/mol
10,TGGGCCACGTGCTGGT,-0.29 kcal/mol
11,TGGTTCACGTGTGATC,0.33 kcal/mol
12,GGAGTCACGTGATTCT,0.3 kcal/mol
13,GGGTTCACGTGTAAAT,0.5 kcal/mol
14,AGGGGCACGTGTTCAT,-0.2 kcal/mol
15,CTGCACACGTGTTTGG,0.08 kcal/mol
16,AAAATCACGTGTGGAT,0.24 kcal/mol
17,AGCTACACGTGGGGGT,-0.1 kcal/mol
18,TTTTTCACGTGCGTTC,0.15 kcal/mol
19,TTGAGCACGTGGTAGA,-0.12 kcal/mol
20,CAGTGCACGTGGCGGT,-0.23 kcal/mol
21,CAGGGCACGTGGGAGG,-0.21 kcal/mol
22,ATAGGCACGTGAGGTC,0.16 kcal/mol
23,GGTAACACGTGCGGGA,-0.09 kcal/mol
24,GATGTCACGTGGTGCT,0.07 kcal/mol
25,TGTTTCACGTGTACAT,0.13 kcal/mol

row,Sequence,relative binding free energy
1,GGTTACACGTGTATGT,0.3 kcal/mol
2,TAAGCCACGTGAGGGG,0.22 kcal/mol
3,GACGTCACGTGGCGGG,-0.08 kcal/mol
4,TAGTTCACGTGGGGCC,0.34 kcal/mol
5,CGTTTCACGTGGTACT,0.34 kcal/mol
6,TTCGTCACGTGTAAGG,0.13 kcal/mol
7,GTAAACACGTGAGTAT,0.26 kcal/mol
8,TTTTGCACGTGGCTTA,0 kcal/mol
9,GAAAGCACGTGGGTCG,-0.14 kcal/mol
10,TGGTACACGTGTTCTG,-0.02 kcal/mol
11,TTTTTCACGTGGGGAG,0.28 kcal/mol
12,GGCTCCACGTGGGGTG,-0.19 kcal/mol
13,AGGATCACGTGGTGTT,0.11 kcal/mol
14,CGTGGCACGTGGTTAT,-0.17 kcal/mol
15,ATTCACACGTGATTGG,0.13 kcal/mol
16,GATAACACGTGATGGG,0.14 kcal/mol
17,GGCCTCACGTGGGATG,0.27 kcal/mol
18,AGGGCCACGTGTATGG,-0.09 kcal/mol
19,CGATACACGTGTTTTG,0.07 kcal/mol
20,GGGCACACGTGATAGG,0.2 kcal/mol
21,GGTTGCACGTGCTGGA,-0.06 kcal/mol
